In PubChem BioAssay AID1745853 (National Center for Advancing Translational Sciences (NCATS), 2022):
This is one part of the list. These are further read-outs of the screen, such as a control signal, another cell line or another target. No call is given for them.

Columns and labels:
Test in all cases: Primary Screen for Target Class Profiling of Small Molecule Inhibitors of Methyltransferases
[1] = target: Glycine N-methyltransferase (Homo sapiens) (UniProt Q14749); conditions: purified enzyme, MTase-Glo SAH luminescence; measured here: GNMT inhibition; at 40 µM; stronger effect = lower value
Procedure, shortened: (§1)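 Each enzyme was assayed with SAM and its substrate. SAH formation detected by MTase-Glo luminescence; single-point 40 uM screen[…].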

[2] = target: Guanidinoacetate N-methyltransferase (Homo sapiens) (UniProt Q14353); conditions: purified enzyme, MTase-Glo SAH luminescence; measured here: GAMT inhibition; at 40 µM; stronger effect = lower value
Procedure, shortened: as §1

[3] = target: Histamine N-methyltransferase (Homo sapiens) (UniProt P50135); conditions: purified enzyme, MTase-Glo SAH luminescence; measured here: HNMT inhibition; at 40 µM; stronger effect = lower value
Procedure, shortened: as §1

[4] = target: Nicotinamide N-methyltransferase (Homo sapiens) (UniProt P40261); conditions: purified enzyme, MTase-Glo SAH luminescence; measured here: NNMT inhibition; at 40 µM; stronger effect = lower value
Procedure, shortened: as §1

[5] = target: Phenylethanolamine N-methyltransferase (Homo sapiens) (UniProt P11086); conditions: purified enzyme, MTase-Glo SAH luminescence; measured here: PNMT inhibition; at 40 µM; stronger effect = lower value
Procedure, shortened: as §1
On the % scale 0 is the no-effect control and ±100 the full control effect.

Row | SMILES | activity change, negative = inhibition [1] [%] | activity change, negative = inhibition [2] [%] | activity change, negative = inhibition [3] [%] | activity change, negative = inhibition [4] [%] | activity change, negative = inhibition [5] [%]
1 | CCC(C)NC(=O)c1ccc2c(=O)n(C)c3nnc(SCc4ccc(C)cc4)n3c2c1 (stereo not given) | 5.29 | 0 | 7.42 | 2.43 | 4.83
2 | CCN1CCN(Cc2ccc(NC(=O)c3ccc(C)c(/C=C/c4cnc5[nH]ccc5c4OC)c3)cc2C(F)(F)F)CC1 | -4.01 | -2.03 | -5.92 | -21.5 | -3.94
3 | CNC(=O)N1C[C@@H](Oc2ccccc2)C[C@H]1C(=O)NCCOC | -0.003 | 1.1 | 2.83 | -6.22 | -5.17
4 | C=C1CCC2[C@](C)(CCC[C@@]2(C)C=O)[C@H]1CC/C(C)=C/CO (stereo not given in full) | 0 | 3.89 | -4.08 | -24.2 | -1.06
5 | COc1ccccc1C(=O)N(Cc1ccccc1)S(=O)(=O)c1ccc2c(c1)n(C)c(=O)n2C | -0.995 | 4.07 | -8.37 | -2.3 | -4.12
6 | O=C1CN(Cc2ccccc2)S(=O)(=O)c2ccccc2N1Cc1ccc(F)cc1 | 9.51 | 0 | 8.37 | 2.21 | 1.57
7 | Cc1ccc(Cn2c(=O)c3ccc(C(=O)NC(C)C)cc3n3c(=O)n(Cc4ccccc4C)nc23)cc1 | 5.2 | 3.05 | 4.39 | 2.62 | 3.49
8 | CCCn1c(=O)c2ccc(C(=O)NCC(C)C)cc2n2c(=O)n(CC(=O)Nc3ccc(C)cc3)nc12 | 2.57 | 0.032 | 3.43 | 2.74 | 3.14
9 | Cn1nnc(-c2ccc(-c3ccc(N4C[C@H](CO)OC4=O)cc3F)cn2)n1 | -5.07 | 4.76 | 7.59 | -7.17 | 4.63
10 | CN[C@@H](C)C(=O)N1CC[C@H](NC(=O)Cc2cccs2)C[C@H]1C(=O)N[C@@H](Cc1ccc(OC)cc1)C(N)=O | -6.63 | -1.86 | 0.305 | -19.8 | -10.8
11 | C=C(COC(=O)CC(C)C)C1Cc2cc(C(C)=O)ccc2O1 (stereo not given) | 1.23 | 6.25 | 10.5 | -11.9 | 2.52
12 | CC(=O)N1CCC(N[C@@H]2C[C@H](Cn3cc(-c4cccnc4)nn3)[C@@H](O)[C@H]2O)CC1 | -2.49 | -7.87 | -2.47 | -7.89 | -4.86
13 | Cc1ccccc1NS(=O)(=O)c1ccc2c(c1)n(C)c(=O)n2C | 1.83 | 0 | 10.5 | 12.4 | 3.88
14 | COCCCNc1ccnc(-c2nnc(C)n2-c2ccccc2)c1 | -5.98 | -1.26 | -12.8 | -6.46 | 0.721
15 | CCOC(=O)c1cc2n(n1)CC(C)(C(=O)NCc1ccc(F)cc1)N(CCc1ccc(Cl)cc1)C2=O (stereo not given) | -4.18 | 1.74 | 0.469 | -7.39 | -4.48
16 | Cc1ncccc1OC1(C(=O)O)CCN(C(=O)Cc2ccn(C)c2)CC1 | -6.56 | -5.85 | -3.26 | -4.66 | -2.72
17 | O=C(O)CCCC[C@@H]1CCSS1 | 6.6 | 14.2 | 12.9 | -2.38 | 1.5
18 | Cc1cc(C)n(CCCN(C)C(=O)c2cn(Cc3ccc(F)cc3)nn2)n1 | -2.69 | -2.04 | 1.46 | -0.272 | 16
19 | CN1C(=O)[C@H]2CN(Cc3cn[nH]c3-c3cccs3)C[C@H]2C1=O | -13.4 | -7.38 | -2.17 | -9.72 | -6.42
20 | Cc1cccc(N2CCN(CCNC(=O)CCc3nnc4n(CCC(C)C)c(=O)c5ccccc5n34)CC2)c1C | -2.6 | 2.47 | 7.49 | 9.59 | 2.55

Row | SMILES | activity change, negative = inhibition [1] [%] | activity change, negative = inhibition [2] [%] | activity change, negative = inhibition [3] [%] | activity change, negative = inhibition [4] [%] | activity change, negative = inhibition [5] [%]
21 | C[S+](=O)([O-])N1CC2(CCN(Cc3ccc(Cl)cc3)C2)Cc2ccccc21 (stereo not given) | -1.88 | -1.33 | -5.84 | -6.58 | 1.2
22 | COc1ccc(C(=O)N2CCOCCNC(=O)[C@H]3CCCC[C@H]32)c(OC)n1 | -0.521 | -2.13 | -0.082 | -3.02 | -5.97
23 | Cc1cnc(C2CCC2)n1CCC1CCN(C(=O)c2ccc3ccccc3n2)CC1 | -5.78 | -4.91 | -36.8 | -15.9 | -3.91
24 | COc1ccccc1CN1C(=O)c2cc3sccc3n2CC1(C)C(=O)NC1CCCCC1 (stereo not given) | 6.13 | 0 | 9.09 | 11.3 | 4.65
25 | COc1ccc2cc3n(c2c1)CC(C)(C(=O)NC1CCCCC1)N(C1CCCCCC1)C3=O (stereo not given) | 1.23 | 2.18 | 4.41 | -3.69 | -3.79
26 | CC(C[N+](C)(C)C)OC(N)=O (stereo not given) | -0.788 | 3.91 | -0.61 | -7.33 | 3.08
27 | COc1ccccc1CNC(=O)C1(C)Cn2cnc(C(=O)NCc3ccc(C)cc3)c2C(=O)N1C1CC1 (stereo not given) | 5.11 | 0 | 8.41 | 8.47 | 10.1
28 | O=C(NC1CC1)C1c2ccccc2C(=O)N(C2CCCCC2)C12CCCCC2 (stereo not given) | -3.92 | 0.745 | -0.241 | -4.01 | 2.63
29 | CC1(C(=O)NC2CCCCC2)Cn2c(cc3occc32)C(=O)N1Cc1cccc(Cl)c1 (stereo not given) | -1.89 | -12.1 | 7.21 | -9.72 | -7.06
30 | O=C(c1ccc(-c2ccco2)cc1)N1CCOC(c2ccccc2)C1 (stereo not given) | -12.6 | -1.07 | -2.06 | -3.38 | -3.86
31 | CC1CCC(NC(=O)C2(C)Cn3c(cc4occc43)C(=O)N2Cc2ccc(OC(C)C)cc2)CC1 (stereo not given) | 2.1 | 1.1 | 5.08 | -1.08 | 2.76
32 | CN(CC1CCN(CCc2ccc(Cl)cc2)CC1)C(=O)c1ccccc1C#N | -2.7 | 4.08 | -1.56 | -4.57 | 10.2
33 | Cn1c(=O)c2ccc(C(=O)NC3CCCCC3)cc2n2c(SCc3ccccc3F)nnc12 | -0.503 | 0.845 | -1.1 | -1.83 | 4.19
34 | CCCN1CCN(C(=O)C2(c3ccc(NC(=O)C4CC4)cc3)CCCCC2)CC1 | -5.05 | -7.09 | -6.19 | -10.6 | -2.58
35 | Cc1cc(C(C#N)c2ccc(Cl)cc2)c(Cl)cc1NC(=O)c1cc(I)cc(I)c1O (stereo not given) | -47.9 | -77.2 | -16.6 | -95.6 | -91.6
36 | Cc1c(C2=CCN(C(=O)N(C)C(C)C)CC2)nnn1-c1cccnc1F | -5.08 | -19.8 | 3.26 | -30.2 | -6.76
37 | CCCn1c(=O)c2cc(F)ccc2n2c(SCC(=O)Nc3cc(OC)cc(OC)c3)nnc12 | 7.47 | 0 | 11.1 | 5.04 | 7.19
38 | COc1ccc(CN2CCC(N3Cc4cccn4C3=O)CC2)cc1 | -5.94 | -3.08 | -6.68 | -5.62 | -24.7
39 | Cc1cccc(N2C(=O)CSc3c(c4ccccc4n3C)C2C(=O)NCc2ccccc2)c1C (stereo not given) | 5.94 | 0.603 | 1.56 | -0.011 | 6.98
